This is one part of the list. Repeats are few or missing, and single values can be far off.
Test system: A549
Test: cell-surface PD-L1 MFI ratio relative to cisplatin alone (isotype-subtracted); higher = higher PD-L1 surface expression
Conditions: inducer: cisplatin 4 uM; 10 µM; 24 h
Procedure: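 A549 and H460 NSCLC cells were treated with each library drug at 10 uM, then with radiation (8 Gy) or cisplatin (4 uM), and incubated for 24 h. Cell-surface PD-L1 was measured by flow cytometry as an MFI ratio: (MFI drug+inducer - MFI isotype)/(MFI inducer alone - MFI isotype). Hits were defined as ratio < 0.75.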

cell-surface PD-L1 MFI ratio, active:
Nc1ccc(C(=O)Nc2cccc(-c3nc(N4CCOCC4)c4oc5ncccc5c4n3)c2)cn1 0.711
Cc1cc(-c2ncc(CC(=O)Nc3ccc(-c4cnccn4)cn3)cc2C)ccn1 0.591
CCCCCCCCCCCCCC(=S)NCCCC[C@H](NC(=O)OCc1ccccc1)C(=O)Nc1ccccc1 [Thiomyristoyl] 0.423
Oc1ccc(Nc2nc(-c3ccc(Cl)cc3)cs2)cc1 0.667
Nc1nc(NC2CC2)cc(-c2cccc(Cl)c2Cl)n1 0.494
CC(=O)c1c(C)c2cnc(Nc3ccc(N4CCNCC4)cn3)nc2n(C2CCCC2)c1=O 0.714
CCCc1cc(C)[nH]c(=O)c1CNC(=O)c1cc(-c2ccc(N3CCN(C(C)C)CC3)nc2)cc2c1cnn2C(C)C 0.582
COc1cc2nccc(Oc3ccc(NC(=O)NC4CC4)c(Cl)c3)c2cc1C(N)=O [Lenvatinib] 0.512
Cc1cc(C)cc(Oc2ccc(CNC(=O)[C@H](C)N)cc2C)c1 0.471
CC(C)(C)c1cc(NC(=O)Nc2ccc(-c3cn4c(n3)sc3cc(OCCN5CCOCC5)ccc34)cc2)no1 [Quizartinib (AC220)] 0.714
CCOC(=O)CCNc1cc(N2CCc3ccccc3CC2)nc(-c2ccccn2)n1 0.623
COc1ncc(-c2ccc3nccc(-c4ccnnc4)c3c2)cc1NS(=O)(=O)c1ccc(F)cc1F 0.627
O=C(NC[C@H](O)CN1CCc2ccccc2C1)c1cc(NC2COC2)ncn1 0.539
CC(C)S(=O)(=O)c1ccc2nccc(Nc3ccc4scnc4c3)c2c1 0.592
O=C(/C=C/c1ccc2ccc(C(F)(F)F)cc2n1)c1ccncc1 0.579
Cc1cnc(NC(=O)Nc2cc(Br)c(C)cc2OC[C@@H]2CNCCO2)cn1 0.652
Cc1n[nH]c2ncc(C(=O)N3CCC[C@H]3c3ccc(Cl)cc3)cc12 0.524
O=C(c1cc(Cc2n[nH]c(=O)c3ccccc23)ccc1F)N1CCN(C(=O)C2CC2)CC1 [Olaparib] 0.542

cell-surface PD-L1 MFI ratio, inactive:
CN(C)C(=O)c1ccc(S(=O)(=O)c2ccc(NC(=O)[C@@](C)(O)C(F)(F)F)c(Cl)c2)cc1 1.02
CC1(C)CCC(CN2CCN(c3ccc(C(=O)NS(=O)(=O)c4ccc(NCC5CCOCC5)c([N+](=O)[O-])c4)c(Oc4cnc5[nH]ccc5c4)c3)CC2)=C(c2ccc(Cl)cc2)C1 [Venetoclax (ABT-199, GDC-0199)] 1.1
CNC(=O)c1cc(Oc2ccc(NC(=O)Nc3ccc(Cl)c(C(F)(F)F)c3)cc2)ccn1 [Sorafenib] 1.34
Clc1ccc(NN=C(c2ccccc2)c2ccccn2)nc1 1.62
O=C(/C=C/c1cncc(F)c1)c1c(-c2ccccc2)c2cc(Cl)ccc2[nH]c1=O 2.86
COc1ccc(Oc2cc(NCCC(F)(F)F)c3ncc(-c4ccc(C(=O)NC5CC5)c(C)c4)n3n2)c(F)c1F 0.802
COc1ccc2c(c1)[C@]1(C[C@H]1c1ccc3c(/C=C/c4ccc(CN5C[C@@H](C)O[C@@H](C)C5)cc4)n[nH]c3c1)C(=O)N2 1.2
CN(c1ncccc1CNc1nc(Nc2ccc3c(c2)CC(=O)N3)ncc1C(F)(F)F)S(C)(=O)=O 0.811
CS(=O)(=O)CCNCc1ccc(-c2ccc3ncnc(Nc4ccc(OCc5cccc(F)c5)c(Cl)c4)c3c2)o1 0.909
CCCCCCCCc1ccc(CCC(N)(CO)CO)cc1 [Fingolimod] 0.918
C[C@@H](Oc1ccc2[nH]nc(/C=C/c3cnn(CCO)c3)c2c1)c1c(Cl)cncc1Cl 1.33
O=C(N/N=C/c1ccc([N+](=O)[O-])o1)c1ccc(O)cc1 [Nifuroxazide] 0.788
CCS(=O)(=O)N1CC(CC#N)(n2cc(-c3ncnc4[nH]ccc34)cn2)C1 1.39
CC[C@H](C)C(=O)O[C@H]1C[C@@H](C)C=C2C=C[C@H](C)[C@H](CC[C@@H]3C[C@@H](O)CC(=O)O3)[C@H]21 [Lovastatin] 1.28
CN(C)C/C=C/C(=O)Nc1ccc(C(=O)Nc2cccc(Nc3ncc(Cl)c(-c4c[nH]c5ccccc45)n3)c2)cc1 1.02
COc1cc2nc(N3CCCN(C)CC3)nc(NC3CCN(Cc4ccccc4)CC3)c2cc1OC 1.26
OCC1OC(O)CC(O)C1O [2-Deoxy-D-glucose] 0.867
Cc1cn(CCN2CCN(c3ccccc3-c3cc(C#N)cc(C(=O)NCCCN4CCCC4)c3)CC2)c2ccccc12 1.03
CC[C@@H]1C(=O)N(C)c2cnc(Nc3ccc(C(=O)N[C@H]4CC[C@H](N5CCN(CC6CC6)CC5)CC4)cc3OC)nc2N1C(C)C [Volasertib (BI 6727)] 1.39
O=C1[C@H](Cc2ccc(O)cc2)N2C(=O)CCN(C(=O)NCc3ccccc3)[C@H]2CN1Cc1cccc2ccccc12 2.29
Cc1ccc(C(=O)N(CCCN)[C@@H](c2nc3cc(Cl)ccc3c(=O)n2Cc2ccccc2)C(C)C)cc1 1.1
CC(C)(CO)n1cc(C(=O)c2cncc(NC(=O)Cc3ccc(Cl)cn3)c2)c2cnc(N)nc21 1.09
